In the supplement of paper PMC10126150:
Values marked as one replicate rest on one cluster of the flow cell; about a third of the high ones do not repeat.

System: ATP
Assay: switch fluorescence ratio, 500 uM ATP over buffer (Cy3 cluster intensity, sum of 5 cycles each) (fold (ratio)); higher = stronger signal-on switching upon ATP binding; sequences stand for … in TCGTCGGCAGCGTCAGATGTGTATAAGAGACAGTTTTTTTTTTTTTTTTTTTTTTTTT…TC
Conditions: aptamer strand: ATP DNA aptamer (quencher-CACCTGGGGGAGTATTGCGGAGGAAGG + anchor), 100 nM annealed; ATP concentration: 500 uM; one replicate
In short: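 Clusters carrying Cy3-labelled switching strands on a modified Illumina MiSeq flow-cell were annealed to 100 nM quencher-labelled ATP aptamer and imaged in selection buffer. They were imaged again after 15 min with 500 uM ATP at 22 °C, over five buffer/ATP cycles with NaOH stripping and re-annealing in between. For each cluster, the fluorescence ratio is the summed Cy3 intensity of the target cycles divided by that of the buffer cycles, averaged per switch-domain sequence. Clusters outside 100-1000 RFU were left out.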
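Further: ATP exposure 15 min at 22 °C before imaging.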

ATTTTCGCTT was tested, and the switch fluorescence ratio was 0.979.
TTTAAGGAT was tested, and the switch fluorescence ratio was 0.96.
Sequence GCACGAAAGG has a switch fluorescence ratio of 1.03.
For GAAAGCGACT, the switch fluorescence ratio was 1.08.
For TAGCATTTCT, the switch fluorescence ratio was 0.981.
With CAGTTCATCT the switch fluorescence ratio was 1.01.
Sequence CGGTATGTT has a switch fluorescence ratio of 1.
Sequence TACTTTTACG has a switch fluorescence ratio of 1.1.
For AACGATAGCG, the switch fluorescence ratio was 1.08.
GTTTCAAATT was tested, and the switch fluorescence ratio was 0.992.
In the case of CAGGTTAAAA, the switch fluorescence ratio is reported as 1.01.
For AGACAGGTG, the switch fluorescence ratio was 1.22.
In the case of CACATCTCTT, the switch fluorescence ratio is reported as 1.
CCGCGATTAG showed a switch fluorescence ratio of 3.71.
Work on CATTATAGGG yielded a switch fluorescence ratio of 0.954.
Work on AAATGTAGCG yielded a switch fluorescence ratio of 0.995.
Sequence CGTTGTGGAT has a switch fluorescence ratio of 1.
AACGTGGCA gave a switch fluorescence ratio of 0.989.
GAGACCTAGA gave a switch fluorescence ratio of 1.02.
In the case of AAGTAGAGCT, the switch fluorescence ratio is reported as 1.05.
AGTGAAATTA showed a switch fluorescence ratio of 1.01.
TTGTCAGGCG showed a switch fluorescence ratio of 0.978.
Sequence TCTGATGTCA has a switch fluorescence ratio of 1.03.
In the case of GACTAGGAGT, the switch fluorescence ratio is reported as 0.985.
Sequence GTCGGCCTGA has a switch fluorescence ratio of 1.
Sequence GAGGCAAAAT has a switch fluorescence ratio of 1.11.
AGCCATGCAC was tested, and the switch fluorescence ratio was 1.05.
In the case of ATTTGGATGA, the switch fluorescence ratio is reported as 0.992.
For TAGGCGATAG, the switch fluorescence ratio was 1.03.
In the case of CGCGGCATAG, the switch fluorescence ratio is reported as 1.16.
With GGAAAGCATT the switch fluorescence ratio was 0.979.
In the case of CCTCTTTGTG, the switch fluorescence ratio is reported as 1.06.
With CCCCTGCAG the switch fluorescence ratio was 2.14.
With ACAGGTGTCG the switch fluorescence ratio was 0.962.
GCGTAACAAT gave a switch fluorescence ratio of 1.11.
Sequence GTCGTAATCA has a switch fluorescence ratio of 0.971.
With GTATAGTGTT the switch fluorescence ratio was 0.989.
TATTCTTGGT gave a switch fluorescence ratio of 1.
For TTCACCATTA, the switch fluorescence ratio was 1.01.
In the case of CACCCTGGCG, the switch fluorescence ratio is reported as 1.16.
Sequence CCATTCCTTG has a switch fluorescence ratio of 1.01.
TTCCACATAG was tested, and the switch fluorescence ratio was 1.01.
Work on TCGACACGGC yielded a switch fluorescence ratio of 1.09.
ATTTCGTGCT was tested, and the switch fluorescence ratio was 0.972.
Sequence ATGATAAGGC has a switch fluorescence ratio of 0.939.
Work on CCATACAAT yielded a switch fluorescence ratio of 1.1.
TGAGATATTT was tested, and the switch fluorescence ratio was 1.01.
With GACAACGTCC the switch fluorescence ratio was 0.955.
With AACACTGTCA the switch fluorescence ratio was 1.09.
Work on AATGCAGTGA yielded a switch fluorescence ratio of 1.
Work on CTGGCAGAGG yielded a switch fluorescence ratio of 0.962.
For ACCGGTTGCA, the switch fluorescence ratio was 1.04.
Sequence GTGTCCATTT has a switch fluorescence ratio of 0.989.
Sequence GGCGTACTCT has a switch fluorescence ratio of 1.02.
For CAAGGTATTA, the switch fluorescence ratio was 0.999.
For GACGTGGTGA, the switch fluorescence ratio was 1.01.
With ATTCCTTATC the switch fluorescence ratio was 1.05.
Work on GCGCGCAACT yielded a switch fluorescence ratio of 1.
With ATCCCGGCCA the switch fluorescence ratio was 1.05.
Sequence TATAGCGTTG has a switch fluorescence ratio of 0.994.
Work on GGGGAACTAG yielded a switch fluorescence ratio of 1.01.
Work on CGTAACTAAA yielded a switch fluorescence ratio of 0.964.
Sequence TCTTTGAGGA has a switch fluorescence ratio of 0.976.
GTAGGTGCCG was tested, and the switch fluorescence ratio was 0.991.
For GGGTATGATA, the switch fluorescence ratio was 1.03.
With ATGAGCCCGT the switch fluorescence ratio was 1.07.
Work on TATAGTCTGT yielded a switch fluorescence ratio of 0.973.
Work on GTGTTTCAGT yielded a switch fluorescence ratio of 0.963.
CGTGGTCGGC gave a switch fluorescence ratio of 1.
CCGTAGCTCG was tested, and the switch fluorescence ratio was 1.84.
Sequence GATGGATGTC has a switch fluorescence ratio of 0.976.
CATGGGCAGG was tested, and the switch fluorescence ratio was 1.1.
GACGCGCACT was tested, and the switch fluorescence ratio was 1.65.
TTCCTCGTGG was tested, and the switch fluorescence ratio was 1.
In the case of AGGCGAACGG, the switch fluorescence ratio is reported as 1.04.
CGGGGGTAAA was tested, and the switch fluorescence ratio was 0.989.
TCAACCACAT was tested, and the switch fluorescence ratio was 1.07.
GTCATGGGGA showed a switch fluorescence ratio of 1.02.
For TCGTAAAAC, the switch fluorescence ratio was 1.56.
In the case of ACTCCGAGTA, the switch fluorescence ratio is reported as 1.99.
AACTGGGCGC gave a switch fluorescence ratio of 1.12.
For TACGAAGAGC, the switch fluorescence ratio was 1.04.
Sequence CTTCATAAG has a switch fluorescence ratio of 0.953.
GGATTCACAG was tested, and the switch fluorescence ratio was 1.03.
Sequence ACATGCAAAG has a switch fluorescence ratio of 1.03.
